The list shows a part of the results. Further columns of the screen follow, without active or inactive calls.
Columns and labels:
Assay in all cases: Primary Screen for Target Class Profiling of Small Molecule Inhibitors of Methyltransferases
[1] = molecular target: Glycine N-methyltransferase (Homo sapiens) (UniProt Q14749); settings: purified enzyme, MTase-Glo SAH luminescence; measured here: GNMT inhibition; at 40 µM; stronger effect = lower value
How it was run: (§1)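 Each enzyme was assayed with SAM and its substrate. SAH formation detected by MTase-Glo luminescence; single-point 40 uM screen[…].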

[2] = molecular target: Guanidinoacetate N-methyltransferase (Homo sapiens) (UniProt Q14353); settings: purified enzyme, MTase-Glo SAH luminescence; measured here: GAMT inhibition; at 40 µM; stronger effect = lower value
How it was run: as §1

[3] = molecular target: Histamine N-methyltransferase (Homo sapiens) (UniProt P50135); settings: purified enzyme, MTase-Glo SAH luminescence; measured here: HNMT inhibition; at 40 µM; stronger effect = lower value
How it was run: as §1

[4] = molecular target: Nicotinamide N-methyltransferase (Homo sapiens) (UniProt P40261); settings: purified enzyme, MTase-Glo SAH luminescence; measured here: NNMT inhibition; at 40 µM; stronger effect = lower value
How it was run: as §1

[5] = molecular target: Phenylethanolamine N-methyltransferase (Homo sapiens) (UniProt P11086); settings: purified enzyme, MTase-Glo SAH luminescence; measured here: PNMT inhibition; at 40 µM; stronger effect = lower value
How it was run: as §1
% is set by controls: 0 for no effect and ±100 for the full control effect.

Which activity change, negative = inhibition [1] does the source give for COc1ccc(CCO[C@@H]2CCCC[C@H]2N2CC[C@@H](O)C2)cc1OC here?
The activity change, negative = inhibition was 5.97%.

What about the activity change, negative = inhibition [2] of the same compound?
The activity change, negative = inhibition was 7.6%.

And the activity change, negative = inhibition [3]?
The activity change, negative = inhibition was -4.87%.

And the activity change, negative = inhibition [4]?
Its activity change, negative = inhibition is -7.91%.

And the activity change, negative = inhibition [5]?
Its activity change, negative = inhibition is 7.46%.

What does the source list for CCOc1ccc(CCNC(=O)c2cc3n(n2)CC(C)(C(=O)NC2CCCCC2)N(C)C3=O)cc1 (stereo not given)?
activity change, negative = inhibition [1]: -2.8%; activity change, negative = inhibition [2]: -3.89%; activity change, negative = inhibition [3]: 2.59%; activity change, negative = inhibition [4]: -7.66%; activity change, negative = inhibition [5]: -6.12%

Which activity change, negative = inhibition [1] does the source give for NC(N)=NC(N)=Nc1ccccc1 here?
Its activity change, negative = inhibition is 8.02%.

And the activity change, negative = inhibition [2]?
Its activity change, negative = inhibition is 13.9%.

And the activity change, negative = inhibition [3]?
The activity change, negative = inhibition was -11.6%.

What about the activity change, negative = inhibition [4] of the same compound?
Its activity change, negative = inhibition is -0.7%.

And the activity change, negative = inhibition [5]?
The activity change, negative = inhibition was 5.92%.

What does the source list for Cc1ccc(Cn2c(=O)c3ccccc3n3c(CCC(=O)N4CCC(N5CCCCC5)CC4)nnc23)cc1?
activity change, negative = inhibition [1]: -9.34%; activity change, negative = inhibition [2]: 0%; activity change, negative = inhibition [3]: -66%; activity change, negative = inhibition [4]: 11.2%; activity change, negative = inhibition [5]: 1.88%

With COc1ccccc1CN[C@H]1CCCN[C@H]1c1ccccc1 as the compound, how does the activity change, negative = inhibition [1] read?
The activity change, negative = inhibition was 8.11%.

What about the activity change, negative = inhibition [2] of the same compound?
Its activity change, negative = inhibition is 8.99%.

And the activity change, negative = inhibition [3]?
The activity change, negative = inhibition was 5.41%.

What about the activity change, negative = inhibition [4] of the same compound?
Its activity change, negative = inhibition is -8.52%.

And the activity change, negative = inhibition [5]?
Its activity change, negative = inhibition is 3.57%.

What does the source list for OC[C@@H]1CN(CC2CCCCC2)C[C@H]1c1nc(C2CC2)no1?
activity change, negative = inhibition [1]: -2.17%; activity change, negative = inhibition [2]: -2.67%; activity change, negative = inhibition [3]: 1.58%; activity change, negative = inhibition [4]: -9.12%; activity change, negative = inhibition [5]: 8.48%

CC1(C(=O)NC2CCCCCCC2)Cn2c(ccc2-c2ccco2)C(=O)N1CCc1ccco1 (stereo not given) was tested. Which activity change, negative = inhibition [1] did it give?
The activity change, negative = inhibition was -7.01%.

And the activity change, negative = inhibition [2]?
Its activity change, negative = inhibition is 0.594%.

What about the activity change, negative = inhibition [3] of the same compound?
The activity change, negative = inhibition was 1.84%.

And the activity change, negative = inhibition [4]?
The activity change, negative = inhibition was -11.1%.

What about the activity change, negative = inhibition [5] of the same compound?
The activity change, negative = inhibition was 2.81%.

With CCS(=O)(=O)N1CCC(N2C(=O)C(OCC3CC3)C23CCCCC3)CC1 (stereo not given) as the compound, how does the activity change, negative = inhibition [1] read?
The activity change, negative = inhibition was -1.45%.

What about the activity change, negative = inhibition [2] of the same compound?
The activity change, negative = inhibition was -0.025%.

What about the activity change, negative = inhibition [3] of the same compound?
The activity change, negative = inhibition was 1.35%.

And the activity change, negative = inhibition [4]?
Its activity change, negative = inhibition is 2.08%.

What about the activity change, negative = inhibition [5] of the same compound?
The activity change, negative = inhibition was -8.68%.

Which activity change, negative = inhibition [1] does the source give for C=C(C(=O)O)[C@@H]1CC[C@H](C)[C@@H]2CC(=O)C(C)=C2C1 here?
Its activity change, negative = inhibition is 0.552%.

And the activity change, negative = inhibition [2]?
Its activity change, negative = inhibition is 6.45%.

And the activity change, negative = inhibition [3]?
Its activity change, negative = inhibition is 9.88%.

What about the activity change, negative = inhibition [4] of the same compound?
Its activity change, negative = inhibition is -6.32%.

What about the activity change, negative = inhibition [5] of the same compound?
The activity change, negative = inhibition was 7.29%.

Which results are given for COC(=O)C[C@H]1C(C)(C)[C@H](OC(=O)C(C)C)[C@@]2(O)C(=O)[C@]1(C)C1CC[C@]3(C)C(CC(=O)O[C@H]3c3ccoc3)[C@]13O[C@@H]32 (stereo not given in full)?
activity change, negative = inhibition [1]: 0%; activity change, negative = inhibition [2]: 2.11%; activity change, negative = inhibition [3]: 2.85%; activity change, negative = inhibition [4]: -10.5%; activity change, negative = inhibition [5]: 4.72%

Which activity change, negative = inhibition [1] does the source give for CC(C)OCCCn1c(=O)c2ccccc2n2c(SCC(=O)Nc3cccc(F)c3)nnc12 here?
Its activity change, negative = inhibition is -3.54%.

And the activity change, negative = inhibition [2]?
Its activity change, negative = inhibition is 1.92%.

What about the activity change, negative = inhibition [3] of the same compound?
Its activity change, negative = inhibition is 4.72%.

What about the activity change, negative = inhibition [4] of the same compound?
Its activity change, negative = inhibition is -6.94%.

And the activity change, negative = inhibition [5]?
The activity change, negative = inhibition was -1.3%.

Which activity change, negative = inhibition [1] does the source give for Cc1ccc(NC(=O)Cn2c(=O)c3cc(Cl)ccc3n3nncc23)cc1 here?
Its activity change, negative = inhibition is -2.1%.

What about the activity change, negative = inhibition [2] of the same compound?
The activity change, negative = inhibition was 3.76%.

And the activity change, negative = inhibition [3]?
The activity change, negative = inhibition was 4.38%.

What about the activity change, negative = inhibition [4] of the same compound?
The activity change, negative = inhibition was -2.56%.

What about the activity change, negative = inhibition [5] of the same compound?
The activity change, negative = inhibition was -3.77%.

How did the activity change, negative = inhibition [1] turn out when COC[C@@H]1CN(S(=O)(=O)c2c(C)noc2C)C[C@H]1c1ccncc1 was run?
The activity change, negative = inhibition was -6.57%.

And the activity change, negative = inhibition [2]?
The activity change, negative = inhibition was -1.8%.

And the activity change, negative = inhibition [3]?
The activity change, negative = inhibition was 0.181%.

What about the activity change, negative = inhibition [4] of the same compound?
The activity change, negative = inhibition was -7.98%.

What about the activity change, negative = inhibition [5] of the same compound?
Its activity change, negative = inhibition is -4.36%.

For CC(C)C1=NOC2(CCN([S+](=O)([O-])c3cccc(C(F)(F)F)c3)C2)C1 (stereo not given), which activity change, negative = inhibition [1] is on record?
Its activity change, negative = inhibition is -1.56%.

What about the activity change, negative = inhibition [2] of the same compound?
The activity change, negative = inhibition was 2%.

What about the activity change, negative = inhibition [3] of the same compound?
Its activity change, negative = inhibition is 1.24%.

What about the activity change, negative = inhibition [4] of the same compound?
The activity change, negative = inhibition was -1.92%.

And the activity change, negative = inhibition [5]?
The activity change, negative = inhibition was -7.41%.

With COc1cccc2c1CCC[C@H]2CN(C)CCc1ccc2ccoc2c1 as the compound, how does the activity change, negative = inhibition [1] read?
The activity change, negative = inhibition was 0.441%.

What about the activity change, negative = inhibition [2] of the same compound?
The activity change, negative = inhibition was -6.56%.

And the activity change, negative = inhibition [3]?
Its activity change, negative = inhibition is 8.87%.

What about the activity change, negative = inhibition [4] of the same compound?
The activity change, negative = inhibition was -18.7%.

And the activity change, negative = inhibition [5]?
The activity change, negative = inhibition was -8.78%.

COc1c(Cl)cc2c([nH]c3cnccc32)c1NC(=O)c1cccnc1C was tested. Which activity change, negative = inhibition [1] did it give?
Its activity change, negative = inhibition is -24.4%.

And the activity change, negative = inhibition [2]?
The activity change, negative = inhibition was -7.16%.

What about the activity change, negative = inhibition [3] of the same compound?
Its activity change, negative = inhibition is -9.26%.

And the activity change, negative = inhibition [4]?
The activity change, negative = inhibition was -17.9%.

And the activity change, negative = inhibition [5]?
The activity change, negative = inhibition was -1.34%.

How did the activity change, negative = inhibition [1] turn out when CCCC1c2ccc(C)n2CCN1C(=O)NCC1CCC(C(=O)OCC)CC1 (stereo not given) was run?
Its activity change, negative = inhibition is -3.73%.

What about the activity change, negative = inhibition [2] of the same compound?
Its activity change, negative = inhibition is 3.89%.

And the activity change, negative = inhibition [3]?
The activity change, negative = inhibition was -5.4%.

What about the activity change, negative = inhibition [4] of the same compound?
The activity change, negative = inhibition was 0.217%.

And the activity change, negative = inhibition [5]?
Its activity change, negative = inhibition is -7.33%.
